Data taken from PubChem BioAssay (NCI).
“And” between values parts separate entries of the source, which are not always exact repeats. Equal entries are not always repeated.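 Cultured in 96-well plates, cells were exposed to test compound for 48 hours across five concentrations. GI50 marks 50% less growth. TGI marks complete inhibition of growth.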

System: NCI-H322M lung
Experiment: NCI-60 cell line screen, 48 h

Row | SMILES | TGI | GI50
1 | CCC1(Cl)C(=O)NC(=O)N(C2CC(O)C(CO)O2)C1N=[N+]=[N-] (configuration not stated) | > 100 µM | 
2 | COc1ccc2c(c1)CCC(CN1CCN(CCOC(c3ccccc3)c3ccccc3)CC1)C2O (configuration not stated) | 29.5 µM | 
3 | N=C(N)SCC(=O)O | > 100 µM | 
4 | Nc1ccc2c(SCC(=O)Nc3ccccc3-c3ccccc3NC(=O)CSc3c4ccccc4nc4cc(N)ccc34)c3ccccc3nc2c1 | 80.6 µM | 
5 | O=C1CCCC2=C1CC1=C(CCCC1=O)N2c1ccc(-c2ccccc2)cc1 | > 100 µM | 
6 | Cc1cc(C(=O)Nc2cc(Nc3ncccc3-c3ncnc4nc[nH]c34)ccc2F)cc(C(C)(C)C#N)c1 | > 100 µM | 3.95 µM
7 | O=C1CCC(CCc2nc3ccccc3[nH]2)(c2ccccc2)C(=O)N1 (configuration not stated) | > 100 µM | 
8 | CCCCCc1cc(CCCC)sc1-c1ccco1 | > 100 µM | 
9 | O=C1C=CC(=O)c2c(O)c(N3CCN(c4ncccn4)CC3)c(Cl)c(O)c21 | 10.8 µM | 
10 | O=C1CN(c2ccccc2)C(=O)C1C(=O)Nc1ccc(Cl)c(Cl)c1 (configuration not stated) | 16.4 µM | 
11 | Cc1ccc(NCCNCC(O)CO)c2c(=O)c3ccccc3sc12 (configuration not stated) | 3.43 µM | 1.68 µM
12 | CCn1c(-c2nonc2N)nc2c(C#CC(C)(C)O)ncc(OC[C@@H]3CCCN3)c21 | > 25 µM | 8.67 µM
13 | CC(=O)Nc1ccc2c(c1)CN1C(=O)c3ccccc3C1=N2 | > 100 µM | > 100 µM
14 | CCCC(=O)Nc1cn(COC)c(C(=O)N2C[C@H]3C[C@@]34C2=CC(=O)c2[nH]cc(C)c24)n1 | 32.2 µM and > 100 µM | 14.3 µM
15 | COc1ccc(-c2nn(-c3cccc(Cl)c3)cc2/C=C2\C(=N)N(c3ccccc3)N=C2N)cc1 | > 100 µM | 7.36 µM
16 | BrC(Br)([P+](c1ccccc1)(c1ccccc1)c1ccccc1)[P+](c1ccccc1)(c1ccccc1)c1ccccc1 | > 100 µM | 
17 | CCCCCCCCCCCCCCCCCCNC(=O)[C@H]1CSC(c2ccc(F)c(OC)c2)N1 (some centres not stated) | > 50 µM | 1.73 µM
18 | C(/C=C/N1CCCC1)=C\c1nc(N2CCCC2)c2ccccc2n1 | > 100 µM | 
19 | COc1ccc(-c2nc(/C=N/Nc3cc(C)nc4ccc(Br)cc34)c(C)o2)cc1 | 3.09 µM | 1.71 µM
20 | C[C@@H](CCO)OC1OC(COC(=O)C(C)(C)C)C(OC(=O)C(C)(C)C)C(OC(=O)C(C)(C)C)C1OC(=O)C(C)(C)C (some centres not stated) | > 100 µM | 

Row | SMILES | TGI | GI50
21 | COc1ccc(-c2nn3ncccc3c2-c2ccnc(Nc3cccc(C(F)(F)F)c3)n2)cc1 | > 25 µM | 12.5 µM
22 | COc1ccc2c(c1)-c1nc(=S)n(CCN(C)C)c3ccc([N+](=O)[O-])c(c13)N2 | 16.4 µM | 
23 | COc1ccc(CCn2ccc(=O)c(O)c2C)cc1OC | > 100 µM | 
24 | C/C(=N\O)[C@H]1CC[C@@]2(C)[C@@H]3CC[C@H]4C(C)(C)/C(=N/O)CC[C@@]45CC35CC[C@]12C (some centres not stated) | 11.8 µM | 3.51 µM
25 | COc1cc2c(c(OC)c1OC)-c1ccc(SC)c(=O)cc1[C@@H](NC(=O)c1ccc(F)cc1)CC2 | 42.4 µM | < 0.01 µM
26 | Oc1cccc(-c2nc(N3CCOCC3)c3oc4ncccc4c3n2)c1 | 1.66 µM and 3.26 µM | 0.183 µM and 0.208 µM
27 | CCOc1ccccc1NC(=O)CCC(=O)NN | > 100 µM | 
28 | CC(=O)[O-].O=[N+]([O-])c1ccc([O-])c(C=NCCN=Cc2cc([N+](=O)[O-])ccc2[O-])c1.[Mn+3] | > 100 µM | > 100 µM
29 | COc1ccc(CNC(=O)c2ccc(-c3cc(-c4nnc(C)o4)ccc3C)cc2)cc1 | > 25 µM | > 25 µM
30 | CC[C@H](C)[C@H](NC(=O)N[C@@H](C)c1ccccc1)C(=O)N(C)[C@H](C[C@@H](OC(C)=O)c1nc(C(=O)N[C@@H](Cc2ccccc2)C[C@H](C)C(=O)OC)cs1)C(C)C | > 100 µM | 45 µM
31 | CCOC(=O)C(NC(=O)CC)(Nc1ccccc1F)C(F)(F)F (configuration not stated) | > 100 µM | 
32 | CCc1ccc(OCc2ccccc2C(=O)Nc2ccc3nc(C)cc(N)c3c2)cc1 | 2.97 µM | 1.6 µM
33 | COc1cc2c3cc1Oc1cc(ccc1O)C[C@@H]1c4c(cc(OC)c(O)c4Oc4ccc(cc4)C[C@@H]3[N+](C)(C)CC2)CC[N+]1(C)C | > 100 µM | 
34 | COC(=O)c1ccc2cc(O)ccc2c1 | > 100 µM | 
35 | C1=CC=C2NCCSCCNC3=CC=CC=CC3=NCCSCCN=C2C=C1 | > 100 µM | 
36 | CO[C@H](C)[C@](O)(C(=O)OCC1=CCN2CC[C@@H](O)[C@H]12)C(C)C | > 100 µM | 
37 | N#CC1=C(N)Oc2c(sc3c(Br)cccc23)C1c1ccc(F)cc1 (configuration not stated) | 27.7 µM | 0.7 µM
38 | CC(C)(C)C#CI1OC(=O)c2ccccc21 | 26.2 µM | 
39 | O=C(NCCCn1ccnc1[N+](=O)[O-])C(=O)NCCCn1ccnc1[N+](=O)[O-] | > 100 µM | 
40 | O=C1Cc2ccccc2CCc2ccccc21 | > 100 µM | 
